# The supplement of paper PMC8728848
# This is one part of the list.
# B1: CPA (Cicer arietinum) (protein)
# chain: MAFSYLNLVLVTLTTLFFLQTTKVKSQKSVSFHITNFTISRPSITLQGTAEFLPNVLLLNDIEHPVFVVGRALYSKPITLWNNKTGKVASFVTSFTFDVQDLKKTVPGHGLVFFLAPSGSEIPFSSDGGNLGVVDGKNAFNRFVGVEFDNFVNSWDPKYSHVGINVNSLISTKTVKWNRVSGELVKVSIVYDSVSTTLTVIVTYKNGQISILSQLVDLKAVLPDTVNIGFSASTTLVSPRQLHNIHSWSFTSTFET
# What was measured:
# Experiment in all cases: glycan array binding signal (z-score within array); higher = stronger binding
# Conditions in all cases: glycan notation: IUPAC condensed, linker removed
# [1] = target: Neu5Ac(a2-3)Gal(b1-4)GlcNAc(b1-3)Gal(b1-4)GlcNAc(b1-3)Gal(b1-4)GlcNAc(b1-2)Man(a1-3)[Neu5Ac(a2-3)Gal(b1-4)GlcNAc(b1-3)Gal(b1-4)GlcNAc(b1-3)Gal(b1-4)GlcNAc(b1-2)Man(a1-6)]GalNAc
# Method in brief: (§1)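 Glycan array data came from 3228 arrays in the Consortium for Functional Glycomics database, and only arrays with an available protein sequence were kept. Glycan names were put into IUPAC-condensed notation, and columns mapping to the same glycan were averaged. The binding signal is a within-array Z-score, averaged across arrays of one protein sequence run at different concentrations or buffers and across linkers. A negative Z-score can be read as non-binding.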
# [2] = target: Neu5Ac(a2-3)Gal(b1-4)GlcNAc(b1-3)Gal(b1-4)GlcNAc(b1-3)GalNAc
# Method in brief: as §1
# [3] = target: Neu5Ac(a2-3)Gal(b1-4)GlcNAc(b1-3)Gal(b1-4)GlcNAc(b1-3)[Neu5Ac(a2-3)Gal(b1-4)GlcNAc(b1-3)Gal(b1-4)GlcNAc(b1-6)]GalNAc
# Method in brief: as §1
# [4] = target: Neu5Ac(a2-3)Gal(b1-4)GlcNAc(b1-3)Gal(b1-4)GlcNAc(b1-6)[Gal(b1-3)]GalNAc
# Method in brief: as §1
# [5] = target: Neu5Ac(a2-3)Gal(b1-4)GlcNAc(b1-3)Gal(b1-4)[Fuc(a1-3)]GlcNAc
# Method in brief: as §1
# [6] = target: Neu5Ac(a2-3)Gal(b1-4)GlcNAc(b1-3)GalNAc
# Method in brief: as §1
# [7] = target: Neu5Ac(a2-3)Gal(b1-4)GlcNAc(b1-3)[Neu5Ac(a2-3)Gal(b1-4)GlcNAc(b1-6)]GalNAc
# Method in brief: as §1
# [8] = target: Neu5Ac(a2-3)Gal(b1-4)GlcNAc(b1-6)GalNAc
# Method in brief: as §1
# [9] = target: Neu5Ac(a2-3)Gal(b1-4)GlcNAc(b1-6)[Gal(b1-3)]GalNAc
# Method in brief: as §1
# [10] = target: Neu5Ac(a2-3)Gal(b1-4)GlcNAc(b1-6)[Neu5Ac(a2-3)Gal(b1-3)]GalNAc
# Method in brief: as §1
# [11] = target: Neu5Ac(a2-3)Gal(b1-4)GlcNAc6S
# Method in brief: as §1
# [12] = target: Neu5Ac(a2-3)Gal(b1-4)[Fuc(a1-3)]GlcNAc
# Method in brief: as §1
# [13] = target: Neu5Ac(a2-3)Gal(b1-4)[Fuc(a1-3)]GlcNAc(b1-2)Man
# Method in brief: as §1
# [14] = target: Neu5Ac(a2-3)Gal(b1-4)[Fuc(a1-3)]GlcNAc(b1-3)Gal
# Method in brief: as §1
# [15] = target: Neu5Ac(a2-3)Gal(b1-4)[Fuc(a1-3)]GlcNAc(b1-3)Gal(b1-4)GlcNAc
# Method in brief: as §1
# [16] = target: Neu5Ac(a2-3)Gal(b1-4)[Fuc(a1-3)]GlcNAc(b1-3)Gal(b1-4)[Fuc(a1-3)]GlcNAc(b1-3)Gal(b1-4)[Fuc(a1-3)]GlcNAc
# Method in brief: as §1
# [17] = target: Neu5Ac(a2-3)Gal(b1-4)[Fuc(a1-3)]GlcNAc(b1-3)GalNAc
# Method in brief: as §1
# [18] = target: Neu5Ac(a2-3)Gal(b1-4)[Fuc(a1-3)]GlcNAc(b1-6)[Gal(b1-3)]GalNAc
# Method in brief: as §1
# [19] = target: Neu5Ac(a2-3)Gal(b1-4)[Fuc(a1-3)]GlcNAc(b1-6)[Neu5Ac(a2-3)Gal(b1-3)]GalNAc
# Method in brief: as §1
# [20] = target: Neu5Ac(a2-3)Gal(b1-4)[Fuc(a1-3)]GlcNAc6S
# Method in brief: as §1
# [21] = target: Neu5Ac(a2-3)Gal6S(b1-4)GlcNAc
# Method in brief: as §1
# [22] = target: Neu5Ac(a2-3)Gal6S(b1-4)[Fuc(a1-3)]GlcNAc
# Method in brief: as §1
# [23] = target: Neu5Ac(a2-3)GalNAc
# Method in brief: as §1
# [24] = target: Neu5Ac(a2-3)GalNAc(b1-4)GlcNAc
# Method in brief: as §1
# [25] = target: Neu5Ac(a2-3)[GalNAc(b1-4)]Gal(b1-4)Glc
# Method in brief: as §1
# [26] = target: Neu5Ac(a2-3)[GalNAc(b1-4)]Gal(b1-4)GlcNAc
# Method in brief: as §1
# [27] = target: Neu5Ac(a2-3)[GalNAc(b1-4)]Gal(b1-4)GlcNAc(b1-3)GalNAc
# Method in brief: as §1
# [28] = target: Neu5Ac(a2-3)[Neu5Ac(a2-6)]GalNAc
# Method in brief: as §1
# [29] = target: Neu5Ac(a2-6)Gal
# Method in brief: as §1
# [30] = target: Neu5Ac(a2-6)Gal(b1-3)GlcNAc(b1-3)[Gal(b1-4)GlcNAc(b1-6)]Gal(b1-4)Glc
# Method in brief: as §1
# [31] = target: Neu5Ac(a2-6)Gal(b1-4)Glc
# Method in brief: as §1
# [32] = target: Neu5Ac(a2-6)Gal(b1-4)GlcNAc
# Method in brief: as §1
# [33] = target: Neu5Ac(a2-6)Gal(b1-4)GlcNAc(b1-2)Man
# Method in brief: as §1
# [34] = target: Neu5Ac(a2-6)Gal(b1-4)GlcNAc(b1-2)Man(a1-3)Man(b1-4)GlcNAc(b1-4)GlcNAc
# Method in brief: as §1
# [35] = target: Neu5Ac(a2-6)Gal(b1-4)GlcNAc(b1-2)Man(a1-3)[Gal(b1-4)GlcNAc(b1-2)Man(a1-6)]Man(b1-4)GlcNAc(b1-4)GlcNAc
# Method in brief: as §1
# [36] = target: Neu5Ac(a2-6)Gal(b1-4)GlcNAc(b1-2)Man(a1-3)[GlcNAc(b1-2)Man(a1-6)]Man(b1-4)GlcNAc(b1-4)GlcNAc
# Method in brief: as §1
# [37] = target: Neu5Ac(a2-6)Gal(b1-4)GlcNAc(b1-2)Man(a1-3)[GlcNAc(b1-4)][Neu5Ac(a2-6)Gal(b1-4)GlcNAc(b1-2)Man(a1-6)]Man(b1-4)GlcNAc(b1-4)GlcNAc
# Method in brief: as §1
# [38] = target: Neu5Ac(a2-6)Gal(b1-4)GlcNAc(b1-2)Man(a1-3)[Man(a1-6)]Man(b1-4)GlcNAc(b1-4)GlcNAc
# Method in brief: as §1
binder,measurement,setting,value
B1,glycan array binding signal (z-score),[1],6.81
same,glycan array binding signal (z-score),[2],-0.304
same,glycan array binding signal (z-score),[3],1.54
same,glycan array binding signal (z-score),[4],-0.027
same,glycan array binding signal (z-score),[5],-0.515
same,glycan array binding signal (z-score),[6],-0.22
same,glycan array binding signal (z-score),[7],-0.354
same,glycan array binding signal (z-score),[8],0.427
same,glycan array binding signal (z-score),[9],-0.566
same,glycan array binding signal (z-score),[10],-0.626
same,glycan array binding signal (z-score),[11],-0.638
same,glycan array binding signal (z-score),[12],-0.538
same,glycan array binding signal (z-score),[13],-0.288
same,glycan array binding signal (z-score),[14],-0.743
same,glycan array binding signal (z-score),[15],-0.418
same,glycan array binding signal (z-score),[16],-0.281
same,glycan array binding signal (z-score),[17],-0.322
same,glycan array binding signal (z-score),[18],-0.005
same,glycan array binding signal (z-score),[19],-0.204
same,glycan array binding signal (z-score),[20],-0.752
same,glycan array binding signal (z-score),[21],-0.562
same,glycan array binding signal (z-score),[22],-0.684
same,glycan array binding signal (z-score),[23],-0.53
same,glycan array binding signal (z-score),[24],-0.537
same,glycan array binding signal (z-score),[25],-0.34
same,glycan array binding signal (z-score),[26],-0.301
same,glycan array binding signal (z-score),[27],2.36
same,glycan array binding signal (z-score),[28],-0.304
same,glycan array binding signal (z-score),[29],-0.276
same,glycan array binding signal (z-score),[30],0.131
same,glycan array binding signal (z-score),[31],-0.327
same,glycan array binding signal (z-score),[32],-0.477
same,glycan array binding signal (z-score),[33],-0.555
same,glycan array binding signal (z-score),[34],0.138
same,glycan array binding signal (z-score),[35],-0.192
same,glycan array binding signal (z-score),[36],-0.478
same,glycan array binding signal (z-score),[37],-0.417
same,glycan array binding signal (z-score),[38],-0.546
